One molecule from patent US20200377563A1 (Pieris, published 2020) can be followed below.

Experiment [1] has as its target T1, human IL-17A (human, UniProt Q16552 24-155, limits assumed). Briefly: cell-based or functional assay.
Experiment [2] concerns the target T1, human IL-17A. Briefly: competition ELISA (MSD), biotinylated hIL-17A pre-incubated with binder, free hIL-17A captured on coated hIL-17RA. For orientation: An ELISA detects its analyte on a solid surface through an enzyme-linked reagent.

T1 sequence (Q16552 24-155 limits assumed): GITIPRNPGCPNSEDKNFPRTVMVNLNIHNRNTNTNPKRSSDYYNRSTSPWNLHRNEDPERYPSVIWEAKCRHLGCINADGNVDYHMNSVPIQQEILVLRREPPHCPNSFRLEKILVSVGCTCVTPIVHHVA

B1: fusion protein of SEQ ID NO: 13 (Fc fusion)
chain: [letters of human IgG1 Fc not shown]GGGGSGGGGSASDEEIQDVSGTWYLKAMTVDFWCSGIHEESVTPMTLTTLEGGNLEAKVTMDIEGFLQEFKAVLEKTDEPGKYTADGGKHVAYIIRSRVKDHYIFYSEGDCPGPVPGVWLVGRDPKNNLEALEDFEKAAGARGLSTESILIPRQSETSSPGSDGGGGSGGGGSASDEEIQDVSGTWYLKAMTVDFWCSGIHEESVTPMTLTTLEGGNLEAKVTMDIEGFLQEFKAVLEKTDEPGKYTADGGKHVAYIIRSRVKDHYIFYSEGDCPGPVPGVWLVGRDPKNNLEALEDFEKAAGARGLSTESILIPRQSETSSPGSD
Broadly, the IC50 is the concentration that gives 50% inhibition. Consider B1, for which, in the experiment with human IL-17A [1], the “G-CSF secretion (EC50, IL17A), n = 3” value turned out to be 0.05 nM. In the experiment with human IL-17A [2], the IC50 is 0.04 nM.
